Earlier results on one compound are cited in patent US20060024344A1 (priority 2004, published 2006).

For this series the following is noted: cooking, or freezing.

`COc1cc(CNC(=O)CCCC/C=C/C(C)C)ccc1O` [capsaicin, 8-methyl-n-vanillyl-6-nonenamide]: the “stability to cold or heat” value is reported as “seemingly unaffected by cold or heat”.
